The whole screen tested about 230,000 compounds, of which about 3,600 (1.6%) were called active. This list was built around the results that the source calls inconclusive (neither active nor inactive); the mix of calls is not that of the screen. Calls follow the shape of the dose curve; as a rule, active = well fitted inhibition curve with a large enough effect (not every such curve was filed as active); inconclusive = small, poorly fitted or top-dose-only effect, or another doubt; inactive = no such curve, though single readings can be large or run the other way. Potencies beside an inconclusive call are fits to weak or partial responses and may not hold up.
What follows are molecules tested against Lysine-specific demethylase 4E (Homo sapiens) (UniProt B2RXH2) (assay: qHTS Assay for Inhibitors of Human Jumonji Domain Containing 2E (JMJD2E)). Settings: JMJD2E catalytic domain, FDH-coupled NADH fluorescence (FDH is formaldehyde dehydrogenase); series mostly up to 57.1 µM.
Also: nearly all actives have a fitted effect of over 50% in size.
Potency is read from the fitted curve at half-maximal effect; tags tell the direction and shape of the fitted curve.

Chain of UniProt B2RXH2 (B2RXH2 whole entry, looked up, the tested form may be a part): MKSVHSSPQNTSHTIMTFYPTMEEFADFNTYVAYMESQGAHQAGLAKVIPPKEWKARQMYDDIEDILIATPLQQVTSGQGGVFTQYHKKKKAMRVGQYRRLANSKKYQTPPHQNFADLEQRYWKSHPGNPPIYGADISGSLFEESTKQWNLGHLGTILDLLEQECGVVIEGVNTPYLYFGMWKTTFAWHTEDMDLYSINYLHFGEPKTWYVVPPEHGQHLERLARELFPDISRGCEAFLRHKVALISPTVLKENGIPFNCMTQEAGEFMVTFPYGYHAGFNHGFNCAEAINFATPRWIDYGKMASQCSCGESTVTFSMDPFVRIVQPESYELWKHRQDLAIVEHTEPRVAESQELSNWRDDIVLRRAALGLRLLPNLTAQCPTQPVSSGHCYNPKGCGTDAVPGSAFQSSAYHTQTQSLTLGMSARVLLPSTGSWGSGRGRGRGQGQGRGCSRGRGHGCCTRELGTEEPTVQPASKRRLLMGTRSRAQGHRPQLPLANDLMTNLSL

Question: For `CCc1nc2ccccc2n(CC)c1=O`, which Potency is on record?
Answer: inconclusive: 39.8 µM [inhibitor, single point]

Question: With `CC(/C=N/NC(=O)c1cc(-c2ccc3ccccc3c2)n[nH]1)=C\c1ccco1` as the molecule, how does the Potency read?
Answer: inconclusive: 39.8 µM [inhibitor, single point]

Question: With `NC(=O)COC(=O)/C=C/c1ccc(S(=O)(=O)N2CCCCCC2)cc1` as the molecule, how does the Potency read?
Answer: inactive

Question: How did the Potency turn out when `COc1cc(NC(=O)c2cccs2)c(OC)cc1NC(=O)CCC(=O)Nc1ccc2ncccc2c1` was run?
Answer: inconclusive: 39.8 µM [inhibitor, single point]

Question: With `CNC(=O)c1ccsc1NC(=O)c1ccc(Cl)s1` as the molecule, how does the Potency read?
Answer: inconclusive: 39.8 µM [inhibitor, single point]

Question: For `N=c1c(C(=O)NCc2ccco2)cc2c(=O)n3ccccc3nc2n1CCc1ccccc1`, which Potency is on record?
Answer: inconclusive: 15.8 µM [inhibitor, partial curve]

Question: With `COc1cc(/C=N\n2nnnc2N)ccc1OCc1ccc(F)cc1` as the molecule, how does the Potency read?
Answer: inconclusive: 28.2 µM [inhibitor, partial curve]

Question: How did the Potency turn out when `COc1ccc(-n2c3c(cc(C(=O)N4CCC(C)CC4)c2=O)C(=O)CC(C)(C)C3)cc1` was run?
Answer: inconclusive: 35.5 µM [inhibitor, single point]

Question: Which Potency does the source give for `C=CCNC(=S)NNC(=O)c1ccccc1` here?
Answer: inactive

Question: How did the Potency turn out when `CC1(C)Cc2cccc(C(=O)NCc3ccco3)c2O1` was run?
Answer: inconclusive: 25.1 µM [inhibitor, partial curve]

Question: Which Potency does the source give for `CC1CCN(C(=O)Cn2cc(C#N)c3ccccc32)CC1` here?
Answer: inactive

Question: How did the Potency turn out when `Cc1ccc2c(c1)C(=O)CC1(CCCC1)O2` was run?
Answer: inconclusive: 25.1 µM [inhibitor, partial curve]

Question: With `O=c1[nH]c2cc3c(cc2cc1C(c1nnnn1CC1CCCO1)N1CCCCCC1)OCCO3` (centres undefined) as the molecule, how does the Potency read?
Answer: inconclusive: 28.2 µM [inhibitor, partial curve]

Question: How did the Potency turn out when `O=C(c1cccs1)N(CC1CCCO1)c1nc(-c2ccccc2)cs1` (centres undefined) was run?
Answer: inactive

Question: `O=C(NCc1ccccn1)c1cc2ccccn2n1` was tested. Which Potency did it give?
Answer: inconclusive: 31.6 µM [inhibitor, partial curve]

Question: Which Potency does the source give for `COc1cccc(C2C=C(c3ccc(OC)cc3OC)Nc3nnnn32)c1` (centres undefined) here?
Answer: inconclusive: 39.8 µM [inhibitor, single point]

Question: How did the Potency turn out when `C=C(C)C(=O)Nc1ccc2c(c1)OCCOCCOCCO2` was run?
Answer: inactive

Question: Which Potency does the source give for `COc1cc(OC)c(-c2nn3c(-c4cccnc4)nnc3s2)cc1OC` here?
Answer: inconclusive: 25.1 µM [inhibitor, partial curve]

Question: How did the Potency turn out when `N[C@@H](Cc1ccc(O)cc1)c1nnc([C@H](CCC(=O)O)NC(=O)C2CCNCC2)o1` was run?
Answer: inconclusive: 15.8 µM [inhibitor, partial curve]

Question: How did the Potency turn out when `COc1ccc(OC)c(NC(=O)C(CC(=O)O)NCc2ccco2)c1` (centres undefined) was run?
Answer: inactive

Question: With `Nc1nc2c(c3c1c(=O)oc1ccccc13)CCCCC2` as the molecule, how does the Potency read?
Answer: inconclusive: 0.891 µM [inhibitor, full curve]

Question: Which Potency does the source give for `COC(=O)c1cc([N+](=O)[O-])c(-n2cncn2)c([N+](=O)[O-])c1` here?
Answer: inconclusive: 7.94 µM [inhibitor, partial curve]

Question: With `CN1CCN(C(=O)Nc2cccc3ccccc23)CC1` as the molecule, how does the Potency read?
Answer: inconclusive: 28.2 µM [inhibitor, partial curve]

Question: For `COC(=O)[C@@]1(Cc2ccc(OC)cc2)[C@H]2c3cc(C(=O)N(C)C)n(Cc4ccc(O)c(OC)c4)c3C[C@H]2CN1C(=O)c1ccccc1`, which Potency is on record?
Answer: inconclusive: 39.8 µM [inhibitor, single point]

Question: With `CCN(CCO)c1ccc(-n2c(N)c(C(=O)OC)c3nc4ccccc4nc32)cc1` as the molecule, how does the Potency read?
Answer: inconclusive: 20 µM [inhibitor, partial curve]

Question: Which Potency does the source give for `COCCCn1c(SCCc2ccccc2)nc2cc(OC)c(OC)cc2c1=N` here?
Answer: inconclusive: 28.2 µM [inhibitor, single point]

Question: `O=C(c1cc2c(s1)-c1ccccc1OC2)N1CCCC1` was tested. Which Potency did it give?
Answer: inconclusive: 28.2 µM [inhibitor, partial curve]

Question: How did the Potency turn out when `Cc1ccc(S(=O)(=O)N2CCOCC2)cc1NC(=O)CSc1n[nH]c(N)n1` was run?
Answer: inactive

Question: For `O=C(O)CC12CC3CC(C1)CC(n1ncc(NCC4CCCO4)c(Cl)c1=O)(C3)C2` (centres undefined), which Potency is on record?
Answer: inactive

Question: Which Potency does the source give for `Cc1nc2c(C)cccn2c1/C(O)=C1\C(=O)C(=O)N(CCN(C)C)C1c1ccco1` (centres undefined) here?
Answer: inconclusive: 39.8 µM [inhibitor, single point]

Question: `CCCCCNCc1ccc(OCc2ccc(Cl)nc2)c(OC)c1` was tested. Which Potency did it give?
Answer: inconclusive: 12.6 µM [inhibitor, partial curve]

Question: How did the Potency turn out when `Cc1coc2cc3oc(=O)c4c(c3cc12)CCC4` was run?
Answer: inconclusive: 25.1 µM [inhibitor, partial curve]

Question: With `Cc1ccc(-n2nc(C)c(/C=N/n3c(C)n[nH]c3=S)c2Cl)cc1` as the molecule, how does the Potency read?
Answer: inactive

Question: `Cc1cc(NC(=O)COC(=O)COc2ccc3c4c(c(=O)oc3c2)CCC4)no1` was tested. Which Potency did it give?
Answer: inconclusive: 28.2 µM [inhibitor, partial curve]

Question: With `CC(C)(C)c1csc(NC(=O)CSc2nc3ccccc3c(=O)[nH]2)n1` as the molecule, how does the Potency read?
Answer: inactive

Question: With `CC1Cc2ccccc2N1Cc1cc(=O)n2ccsc2n1` (centres undefined) as the molecule, how does the Potency read?
Answer: inconclusive: 25.1 µM [inhibitor, single point]

Question: How did the Potency turn out when `COc1ccc(C2C=C(C34CC5CC(CC(C5)C3)C4)NC(=S)N2)cc1` (centres undefined) was run?
Answer: inconclusive: 39.8 µM [inhibitor, single point]

Question: How did the Potency turn out when `COC(=O)/C(=C\C(=O)c1ccccc1)Nc1cccc(C(F)(F)F)c1` was run?
Answer: inconclusive: 39.8 µM [inhibitor, single point]

Question: `C(=N\Nc1nc2ccccc2[nH]1)/c1cccc2nccnc12` was tested. Which Potency did it give?
Answer: inconclusive: 39.8 µM [inhibitor, single point]

Question: Which Potency does the source give for `CCNC(=O)CN1c2cccc3cccc(c23)S1(=O)=O` here?
Answer: inconclusive: 31.6 µM [inhibitor, single point]

Question: `CC(C)(C)C1CCc2c(sc(NC(=O)C3CC=CCC3C(=O)O)c2C#N)C1` (centres undefined) was tested. Which Potency did it give?
Answer: inactive

Question: Which Potency does the source give for `CCCN1C(=O)c2ccccc2NC1c1ccc(OC)cc1OC` (centres undefined) here?
Answer: inconclusive: 31.6 µM [inhibitor, partial curve]

Question: With `COc1ccccc1-c1cn[nH]c1-c1ccc(OCc2ccccc2)cc1O` as the molecule, how does the Potency read?
Answer: inconclusive: 39.8 µM [inhibitor, single point]

Question: For `Cc1cc(SCC(=O)O)nc2ccccc12`, which Potency is on record?
Answer: inactive

Question: Which Potency does the source give for `Cc1cc(C)cc(NC(=O)CN2CCN(CCN=CC3=C(O)CC(C)(C)CC3=O)CC2)c1` here?
Answer: inconclusive: 3.98 µM [inhibitor, single point]

Question: `COc1ccc(NS(=O)(=O)c2cc(NC(=O)c3ccco3)ccc2N2CCCC2)cc1` was tested. Which Potency did it give?
Answer: inconclusive: 35.5 µM [inhibitor, single point]

Question: `CCCc1nc2ccccc2c(=O)n1/N=C/c1c(C)[nH]n(-c2ccc(C)cc2)c1=O` was tested. Which Potency did it give?
Answer: inconclusive: 39.8 µM [inhibitor, single point]

Question: `O=C1CC(c2ccco2)CC(O)=C1C=NCCN1CCNCC1` (centres undefined) was tested. Which Potency did it give?
Answer: inconclusive: 25.1 µM [inhibitor, single point]

Question: Which Potency does the source give for `C=CCn1c(O)c(C(CC)=NCCN2CCOCC2)c(=O)[nH]c1=O` here?
Answer: inactive

Question: `Cc1ccc(-c2nc(-c3cccnc3)sc2CC(=O)Nc2ccc(C)c(Cl)c2)cc1` was tested. Which Potency did it give?
Answer: active: 15.8 µM

Question: Which Potency does the source give for `O=C(N/N=C/c1cc([N+](=O)[O-])ccc1O)c1ccncc1` here?
Answer: active: 10 µM

Question: Which Potency does the source give for `COc1ccccc1/C=C/C=N/N1CCN(c2ccccn2)CC1` here?
Answer: inconclusive: 31.6 µM [inhibitor, single point]

Question: How did the Potency turn out when `CC(=O)N1CCN(c2ccc(NCc3cccs3)cc2)CC1` was run?
Answer: inconclusive: 39.8 µM [inhibitor, single point]

Question: Which Potency does the source give for `COc1cc(-c2ccc(N=Nc3ccc4c(S(=O)(=O)O)cc(S(=O)(=O)O)c(N)c4c3O)c(OC)c2)ccc1N=Nc1ccc2c(S(=O)(=O)O)cc(S(=O)(=O)O)c(N)c2c1O` here?
Answer: active: 3.55 µM

Question: `COc1ccccc1C(=O)Nc1ccc(S(=O)(=O)N2CCc3ccccc32)cc1` was tested. Which Potency did it give?
Answer: inactive

Question: `COc1ccc2cc(CN(CC3CCCO3)C(=S)NCc3ccco3)c(=O)[nH]c2c1` (centres undefined) was tested. Which Potency did it give?
Answer: inconclusive: 39.8 µM [inhibitor, single point]

Question: `CCN(Cc1ccc(OC)c(F)c1)C(=O)CCl` was tested. Which Potency did it give?
Answer: inconclusive: 25.1 µM [inhibitor, single point]

Question: `N#CC1=C2SCN(c3ccccc3)CN2C(=O)CC1c1cccs1` (centres undefined) was tested. Which Potency did it give?
Answer: active: 15.8 µM

Question: For `O=C(CSc1nc2ccccc2s1)N1N=C(c2cccs2)CC1c1ccc(F)cc1` (centres undefined), which Potency is on record?
Answer: inconclusive: 31.6 µM [inhibitor, partial curve]

Question: Which Potency does the source give for `CNC(=S)Nc1cccc(C(C)=O)c1` here?
Answer: inactive

Question: For `CCCn1c(-c2ccc(F)cc2)nc2c(N3CCN(CCC(=O)OCC)CC3)nc(C)nc21`, which Potency is on record?
Answer: inconclusive: 35.5 µM [inhibitor, single point]

Question: With `COc1ccc(-c2cc(C(F)(F)F)nc(SCCC(=O)Nc3cc(C)on3)n2)cc1` as the molecule, how does the Potency read?
Answer: active: 22.4 µM

Question: How did the Potency turn out when `O=C1CC(N2CCN(c3ccccn3)CC2)C(=O)N1c1ccc(F)cc1` (centres undefined) was run?
Answer: inactive

Question: With `CC[N+]1(C)CC2CCC(C)(C1)C2(C)C` (centres undefined) as the molecule, how does the Potency read?
Answer: inconclusive: 3.98 µM [inhibitor, partial curve]

Question: For `CC/C(=N\NC(=O)C(N)=O)c1ccccc1O`, which Potency is on record?
Answer: active: 8.91 µM

Question: How did the Potency turn out when `Cc1ccc(S(=O)(=O)Nc2nc(C)cc(N/N=C/c3ccc(O)cc3)n2)cc1` was run?
Answer: inconclusive: 28.2 µM [inhibitor, partial curve]

Question: Which Potency does the source give for `Cc1ccc(C(=O)CC(=O)COc2ccc(Cl)cc2C)cc1` here?
Answer: inconclusive: 39.8 µM [inhibitor, single point]

Question: `Cc1ccc(C2CC(c3cccs3)=NN2C(=O)CSC2=NN3CCCC(=O)N=C3S2)cc1` (centres undefined) was tested. Which Potency did it give?
Answer: inconclusive: 31.6 µM [inhibitor, partial curve]

Question: How did the Potency turn out when `CCOCCCN1CN(S(=O)(=O)c2ccc(Cl)cc2)c2nc3ccccc3nc21` was run?
Answer: inconclusive: 35.5 µM [inhibitor, single point]
